Data as given in the supplement of paper PMC11417369.
The list shows a part of the results.

test system: PfAP2-HC AP2 domain (GST-tagged); test: gcPBM binding intensity (ln(normalized median fluorescence intensity)); higher = stronger DNA binding
How it was run: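 In this array assay, P. falciparum DNA-binding domains with a GST tag, expressed in E. coli, were applied for 1 h to primer-extended double-stranded 36-bp intergenic genomic probes and negative controls on an Agilent 4 × 180k array. Bound protein was visualised with Alexa488 anti-GST antibody at 488 nm. Binding intensity is the highest Masliner-normalised natural-log median intensity across replicate spots of either probe orientation.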

Row | Sequence | gcPBM binding intensity (ln)
1 | AACAAGTTGCATGGTGCACACATGTATATATATCTA [CACACA_site2548] | 10.2
2 | AAAATGTATGTAGTCTGTACAAATACTCTATAAATA [XGTACX_site6475] | 9.67
3 | TACAATTTTACTCATAAACACACATATATATGTTAT [CACACA_site9031] | 9.86
4 | ACCCAGTGTATTCATAGTACACGCTCATATATTATC [XGTACX_site423] | 9.76
5 | AGGTTTATAAAAAAAAAAAAAAAAAAAAAAAAAAAA [GTGCAC_negctrl_site113] | 9.03
6 | AATATTTAAAACATATGTACTGAAAAACAATTGGAC [XGTACX_site6360] | 10.1
7 | CACAAAGGTCTGAAATTTTAGGGGTGCCTGGGACTA [CACACA_negctrl_site681] | 9.44
8 | TCATAAAAGATTAAGTGTACATGTGCTACTCTTATA [XGTACX_site6255] | 9.56
9 | AATATAAAATCAAGAAATTAAAAAAAAACAGAAAAC [CACACA_negctrl_site1004] | 9.78
10 | ACAAGATAATAGAGAAGTACTAATAAACATACACAA [XGTACX_site6617] | 9.98
11 | TATATATATATATGTGCACACCAATTGTATGTAATA [CACACA_site3888] | 9.94
12 | ATTTTAAATTTATCTGTGCACAGTATTATATAAGCA [GTGCAC_site9806] | 9.56
13 | TATGTTCCTTTTTGTTGTACTGAAAAATTATGTTCA [XGTACX_site3981] | 9.72
14 | ATAATATAAATTAATTTACACACTAATAAATATATA [CACACA_site9259] | 9.64
15 | TATTTATATTTATATACACACATACATATTTATATT [CACACA_site6535] | 9.93
16 | ATTGTGTTAATGAAATGTACATTTTCTCTACGTTAA [XGTACX_site1322] | 9.72
17 | AATATTATGTATAACCGTACATTATATATATAATAA [XGTACX_site1594] | 9.55
18 | TTAAACTTGTTTTGGATGCACTATATAATTCATTTT [GTGCAC_site9549] | 9.64
19 | ATTAAAATAATTTAATTTCTTAGACACAATTTGTAA [GTGCAC_negctrl_site331] | 9.31
20 | GTGTAAAGGTATTATTGTATTATTCAAAATAAAAAA [CACACA_negctrl_site637] | 9.62
21 | TCCTACATATTATAGTGTACATTTTCATGTTCATAT [XGTACX_site4308] | 9.86
22 | AAGTATTATATATTTTGTACATATATAAAACCACAA [XGTACX_site5508] | 9.61

Row | Sequence | gcPBM binding intensity (ln)
23 | TATTTTGTAATAATTACACACGGAATTATAACAGAA [CACACA_site2355] | 9.79
24 | TCTTAATTTGTTATATGTACATAATATAATTGTATA [XGTACX_site5184] | 9.55
25 | TTATATTAATAAAAAGAAAATCATTTTTTCTTTTAT [CACACA_negctrl_site1595] | 9.32
26 | ATATATATATTTATATTTATATGTAAATATCAACGT [TGCATGCA_negctrl_site32] | 9.66
27 | AATATATAGAGAGATATGCACACTGTATGAATGCAC [CACACA_site2677] | 9.78
28 | TATATTAATAATAAGTGTACATATATATATATTTTT [XGTACX_site288] | 9.72
29 | TATTTTTTCTTTCATTGTACTTTTTTTTTGTTTTGT [XGTACX_site4081] | 9.97
30 | AATGAGAAATATAATTGTACATATATTTATTTTCAT [XGTACX_site3669] | 9.54
31 | ATTTGTAAAAAATTCATACACACGTCTTATTTTTAA [CACACA_site1390] | 9.68
32 | AATACTATTATTATTGCACACTTATTATCCCTCGGA [CACACA_site4262] | 9.71
33 | TATCCATTTCTTTATGTGCACATTAAATATATTTGT | 9.94
34 | TATAAAAATATTTCTACACACATTAATATATATATA [CACACA_site1150] | 9.64
35 | CAAAAGGATAGGCACACACACACACCCATATATATA [CACACA_site2199] | 11.1
36 | AATATGTCTATATTTTTTATATGGAAATATTATAAA [GTGCAC_negctrl_site700] | 9.28
37 | TTTTTTTTTTTTTTTTTTTTTTTATCTATTATTTAT [XGTACX_negctrl_site496] | 8.85
38 | AAAAAATTAATATTGACACACATTTTTAAGAATAAT [CACACA_site239] | 9.7
39 | AAACAAAAAATTTAAAGTACAAAAATTATGATTGTT [XGTACX_site465] | 9.62
40 | AATATATAAATTAATACATGCACATATAGAAAGGGA [TGCATGCA_site472] | 10.3
41 | CTTTTTACTTAATACACACACACACTAGAAAAAAAA [CACACA_site4680] | 10.7
42 | TAAAAGGAAAAAAAAGCACACACAATATTACTTGAA [CACACA_site8831] | 10.4
43 | TATCAAAATTAGTATACACACAAAATTATTCAAATA [CACACA_site2232] | 9.69
44 | TATACATATAAATTGTGTACACATATATATATATTT [XGTACX_site7875] | 9.8
